Here are results for 44 molecules from the supplement of paper PMC6135742.

Structures can show the parent of a compound that is named as a salt. ± gives the standard deviation of the averaged measurements. Over roughly 2,600 compounds, “total cell number (DAPI+ nuclei) relative to DMSO vehicle control” has its median near -1.4; the lowest 2% begin near -23. The list shows a part of the results.

This assay concerns jimpy (Plp1 jimpy) mouse iPSC-derived oligodendrocyte progenitor cells. Briefly: total cell number (DAPI+ nuclei) relative to DMSO vehicle control (SDs above negative control mean); higher = more surviving cells. The settings on record: 10 µM; 3 days.
In turn, `COC(=O)[C@H](Cc1ccccc1)NC(=O)[C@@H](N)CC(=O)O` [Aspartame] showed a total cell number of 1.78. `CCS(=O)(=O)c1cccc(-c2cc(C(=O)NC3CCN(C)CC3)c(C)c3[nH]c4ncc(C)cc4c23)c1` yielded a total cell number of -11.1. Next, `Clc1ccc(C2(c3ccc(-c4cn[nH]c4)cc3)CCNCC2)cc1`: -15.2; `C[C@]12CC[C@@H]3c4ccc(O)cc4C[C@@H](CCCCCCCCC[S+]([O-])CCCC(F)(F)C(F)(F)F)[C@H]3[C@@H]1CC[C@@H]2O` (some centres undefined) [Fulvestrant]: -1.29 ± 0.8. With `C=C[C@](C)(O)CC[C@@H]1[C@@]2(C)CCCC(C)(C)[C@@H]2CC[C@@]1(C)O` [Sclareol], the total cell number was -13.2. Take `CO/N=C(\C(=O)N[C@@H]1C(=O)N2C(C(=O)O)=C(COC(C)=O)CS[C@H]12)c1csc(N)n1` [Cefotaxime sodium]: the total cell number was -1.18.

Consider `Nc1ccc(S(=O)(=O)Nc2nccs2)cc1` [Sulfathiazole], for which the total cell number was -2.52.

`O=C(O)c1cccc(-c2noc(-c3ccccc3F)n2)c1` [Ataluren (PTC124)] had a total cell number of -0.157. With `CC(C)[N+]1(C)[C@@H]2CC[C@H]1C[C@@H](OC(=O)C(CO)c1ccccc1)C2` (some centres undefined) [Ipratropium bromide] the figure was -0.664; with `CC(C)[N+]1(C)[C@@H]2CC[C@H]1C[C@@H](OC(=O)C(CO)c1ccccc1)C2` (some centres undefined) [Ipratropium Bromide], 0.67. With `Cc1ccc(-c2cc(C(F)(F)F)nn2-c2ccc(S(N)(=O)=O)cc2)cc1` [Celecoxib] the figure was 0.578 ± 0.53; with `CN1CCc2nc(C(=O)N[C@@H]3C[C@@H](C(=O)N(C)C)CC[C@@H]3NC(=O)C(=O)Nc3ccc(Cl)cn3)sc2C1` [Edoxaban], 1.13; with `OCCn1cc(-c2ccc3c(c2)CC/C3=N\O)c(-c2ccncc2)n1`, 8.12. Next, `CC[C@H]1OC(=O)[C@H](C)[C@@H](O[C@H]2C[C@@](C)(OC)[C@@H](O)[C@H](C)O2)[C@H](C)[C@@H](O[C@@H]2O[C@H](C)C[C@H](N(C)C)[C@H]2O)[C@](C)(O)C[C@@H](C)CN(C)[C@H](C)[C@@H](O)[C@]1(C)O` [Azithromycin]: -5.9; `CC[C@H]1OC(=O)[C@H](C)[C@@H](O[C@H]2C[C@@](C)(OC)[C@@H](O)[C@H](C)O2)[C@H](C)[C@@H](O[C@@H]2O[C@H](C)C[C@H](N(C)C)[C@H]2O)[C@](C)(O)C[C@@H](C)CN(C)[C@H](C)[C@@H](O)[C@]1(C)O` [Azithromycin dihydrate]: -4.55; `CCn1c(N)c(C(=O)NC)c(=O)c2ccc(C#CC(C)(O)COC)nc21` (centres undefined): -4.74.

For the molecule `COCCNC(=O)COc1ccc(OCCNC[C@H](O)COc2ccccc2)cc1` [ZD 7114 hydrochloride], the total cell number was -0.987.

`CN[C@H]1CC[C@@H](c2ccc(Cl)c(Cl)c2)c2ccccc21` [Sertraline hydrochloride] came in with a total cell number of -11.1. On to `CN[C@H]1CC[C@@H](c2ccc(Cl)c(Cl)c2)c2ccccc21` [Sertraline HCl], for which the total cell number was -15.3. With `CCN(CC)CCNC(=O)c1ccc(N)cc1` [Procainamide hydrochloride] the figure was -1.63.

In turn, `NC[C@H](O)c1ccc(O)c(O)c1` [Noradrenaline bitartrate monohydrate] came in with a total cell number of 0.445. Next, `c1ccc2c(c1)CC(N1CCN(c3cccc4c3OCCO4)CC1)C2`: 3.03; `Cc1c(-c2ccc(O)cc2)n(Cc2ccc(OCCN3CCCCCC3)cc2)c2ccc(O)cc12` [Bazedoxifene HCl]: -14.4.

As for `C=C[C@]1(C)C[C@@H](OC(=O)CSC(C)(C)CNC(=O)[C@H](N)C(C)C)[C@]2(C)[C@H](C)CC[C@]3(CCC(=O)[C@H]32)[C@@H](C)[C@@H]1O` [Valnemulin HCl], the total cell number is -4.11. `c1cc(CN2CCCCC2)cc(OCCCNc2nc3ccccc3s2)c1`: the total cell number is -4.93.

For `CCc1cc2c(cc1CC)CC(NC[C@H](O)c1ccc(O)c3[nH]c(=O)ccc13)C2` [Indacaterol Maleate], the total cell number was -6.46. Next, `COCC(=O)NC/C=C/c1ccc2ncnc(Nc3ccc(Oc4ccc(C)nc4)c(C)c3)c2c1`: -6.54; `Cn1c(=O)c2c(ncn2CC2OCCO2)n(C)c1=O` [Doxofylline]: -0.607.

In the case of `CN1CCN(CC(=O)N2c3ccccc3C(=O)Nc3cccnc32)CC1` [Pirenzepine dihydrochloride], the total cell number stood at 0.73. The molecule `CC(C)NC[C@@H](C(=O)N1CCN(c2ncnc3c2[C@H](C)C[C@H]3O)CC1)c1ccc(Cl)cc1` returned a total cell number of -8.76.

In turn, `O=C1c2c(O)cc(O)cc2O[C@H](c2ccc(O)c(O)c2)[C@H]1O` (racemic) [(±)-Taxifolin] showed a total cell number of -0.904. In turn, `CC(C)(C)c1cc(C(C)(C)C)c(NC(=O)c2c[nH]c3ccccc3c2=O)cc1O` [Ivacaftor (VX-770)] displayed a total cell number of 4.13. Next, `Cc1ccc([C@@H]2O[C@H](CO)[C@@H](O)[C@H](O)[C@H]2O)cc1Cc1ccc(-c2ccc(F)cc2)s1` [Canagliflozin]: -1.17; `COC(=O)Nc1nc2cc(Sc3ccccc3)ccc2[nH]1` [Fenbendazole]: -6.32. Next, `COc1cccc(C=NCCN=Cc2cccc(OC)c2[O-])c1[O-].[Cl-].[Mn+3]`: 0.358; `CNCCc1cnc(CCC(c2ccccc2)c2ccccc2)[nH]1` [N-Methylhistaprodifen dioxalate salt]: -8.93; `CCOC(=O)[C@H]1O[C@@H]1C(=O)N[C@@H](CC(C)C)C(=O)NCCC(C)C` [Aloxistatin]: -3.84.

Take `C=CC(=O)Nc1cccc(Sc2nc(Nc3ccc(N4CCN(C)CC4)cc3)ncc2Cl)c1`: the total cell number is -26.9. With `O=C(Nc1cccnc1)c1cc(-c2ccnc(F)c2)ccc1OCc1ccccc1` the figure was -3.79; with `COC(=O)C1=C(C)NC(C)=C(C(=O)OC(C)(C)CN(C)CCC(c2ccccc2)c2ccccc2)C1c1cccc([N+](=O)[O-])c1` (centres undefined) [Lercanidipine hydrochloride hemihydrate], -8.91. As for `C[C@]12CCC(=O)C=C1CC[C@@H]1[C@@H]2CC[C@@]2(C)[C@H]1CC[C@]2(O)C(=O)CO` [Cortexolone], the total cell number is -0.524.

In turn, `c1ccc(-c2ccc(C(c3ccccc3)n3ccnc3)cc2)cc1` (centres undefined) [Bifonazole] gave a total cell number of 17.8. Next, `Oc1c(Cl)cc(Cl)c2cccnc12` [Chloroxine]: -4.01. For the molecule `COc1ccccc1N1CCN(CCCNc2c(C)c(=O)n(C)c(=O)n2C)CC1` [Urapidil, 5-Methyl-], the total cell number is -1.49.
